Data as given in the antibiotic and cytotoxicity screens of Wong et al. (2023).
The list shows a part of the results.

System: S. aureus RN4220
Assay: growth inhibition call (relative growth <= 0.2)
Conditions: 50 µM

Growth inhibition call, inactive:
CO[C@@H]1CN(C)C(=O)c2cc(NS(=O)(=O)c3ccccc3)ccc2OC[C@H](C)N(C(=O)NC(C)C)C[C@H]1C, COc1ccc(S(=O)(=O)Nc2ccc3c(c2)C(=O)N([C@@H](C)CO)C[C@H](C)[C@@H](CN(C)C(=O)Nc2cccc4ccccc24)OCCCC[C@@H](C)O3)cc1, Cc1ccc(S(=O)(=O)Nc2cccc3c2O[C@@H](CN(C)C(=O)Nc2cccc4ccccc24)[C@H](C)CN([C@@H](C)CO)C3=O)cc1, O=[N+]([O-])c1ccc(/C=C/CN(C/C=C/c2ccc([N+](=O)[O-])cc2)CCNS(=O)(=O)c2cccc3cnccc23)cc1, Cc1noc(C)c1NC(=O)N[C@@H]1CC[C@H](CC(=O)NCCCN(C)C)O[C@H]1CO, O=S1(=O)CC[C@H](N[C@H]2CCS(=O)(=O)C2)C1, CCOC(=O)c1c(CN2CCN(Cc3ccccc3)CC2)n(-c2ccccc2)c2cc(Br)c(O)cc12, COc1ccccc1NC(=O)N(C)C[C@@H]1Oc2ncc(C#CCN(C)C)cc2C(=O)N([C@H](C)CO)C[C@@H]1C, C[C@H]1CCCCO[C@@H](CN(C)C(=O)Nc2ccc3c(c2)OCO3)[C@@H](C)CN([C@@H](C)CO)C(=O)c2cc(NS(=O)(=O)c3ccc(F)cc3)ccc2O1, C[C@@H]1CCCCO[C@@H](CN(C)C(=O)C2CCCCC2)[C@@H](C)CN([C@@H](C)CO)C(=O)c2cc(NC(=O)c3ccccc3)ccc2O1
